Measurements taken from article PMC9491529.
Results are given in words; binding and its absence hold for the method and conditions named. In cells and extracts the contact can be indirect. Some entries that bind do so weakly or less than the wild type. For part of these data: Where a sequence is shown, tags or fusion partners need not be part of it.

Amino acid sequences for entries named in this document (tags omitted). A change or cut given only in a name is not applied to a line headed by its entry. Chains listed by the source or under a name are the forms on record and can include a tag or linker.
UniProt Q5ZHZ0: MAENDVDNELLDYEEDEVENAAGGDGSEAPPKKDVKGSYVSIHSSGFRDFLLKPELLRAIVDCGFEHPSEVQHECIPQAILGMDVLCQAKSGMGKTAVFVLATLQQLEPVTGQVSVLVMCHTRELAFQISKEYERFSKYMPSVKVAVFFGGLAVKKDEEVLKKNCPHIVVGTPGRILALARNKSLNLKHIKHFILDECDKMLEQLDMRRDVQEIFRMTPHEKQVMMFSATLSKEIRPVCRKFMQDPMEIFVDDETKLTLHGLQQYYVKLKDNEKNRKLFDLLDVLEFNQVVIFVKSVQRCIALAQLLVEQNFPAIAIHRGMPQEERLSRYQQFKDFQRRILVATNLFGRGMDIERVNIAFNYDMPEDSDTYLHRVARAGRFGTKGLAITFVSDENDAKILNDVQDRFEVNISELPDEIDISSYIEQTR
UniProt Q13838: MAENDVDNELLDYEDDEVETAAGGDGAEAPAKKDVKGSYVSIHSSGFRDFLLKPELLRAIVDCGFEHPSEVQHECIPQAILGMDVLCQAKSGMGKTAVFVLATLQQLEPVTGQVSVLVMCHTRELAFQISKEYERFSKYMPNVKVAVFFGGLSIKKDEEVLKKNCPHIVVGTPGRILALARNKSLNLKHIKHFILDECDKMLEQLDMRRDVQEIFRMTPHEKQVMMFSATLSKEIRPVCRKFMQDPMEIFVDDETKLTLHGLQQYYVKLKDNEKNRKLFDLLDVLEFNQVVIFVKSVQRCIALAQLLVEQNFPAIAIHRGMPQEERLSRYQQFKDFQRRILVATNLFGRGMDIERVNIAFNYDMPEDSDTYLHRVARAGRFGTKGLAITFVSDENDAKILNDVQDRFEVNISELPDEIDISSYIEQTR
FLAG-DDX39B (95A) (Q13838, form named): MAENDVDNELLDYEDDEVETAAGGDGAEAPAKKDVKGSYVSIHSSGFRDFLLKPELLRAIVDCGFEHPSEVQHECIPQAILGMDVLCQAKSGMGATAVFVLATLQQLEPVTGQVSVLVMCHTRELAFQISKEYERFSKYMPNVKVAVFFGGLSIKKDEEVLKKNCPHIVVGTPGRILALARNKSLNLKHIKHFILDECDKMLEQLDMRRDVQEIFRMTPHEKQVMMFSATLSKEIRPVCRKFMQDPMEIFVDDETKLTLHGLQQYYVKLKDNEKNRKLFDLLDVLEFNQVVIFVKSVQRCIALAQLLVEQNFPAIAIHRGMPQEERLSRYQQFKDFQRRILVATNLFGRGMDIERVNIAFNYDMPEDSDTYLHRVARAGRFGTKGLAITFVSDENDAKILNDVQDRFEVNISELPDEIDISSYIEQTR
UniProt O00148: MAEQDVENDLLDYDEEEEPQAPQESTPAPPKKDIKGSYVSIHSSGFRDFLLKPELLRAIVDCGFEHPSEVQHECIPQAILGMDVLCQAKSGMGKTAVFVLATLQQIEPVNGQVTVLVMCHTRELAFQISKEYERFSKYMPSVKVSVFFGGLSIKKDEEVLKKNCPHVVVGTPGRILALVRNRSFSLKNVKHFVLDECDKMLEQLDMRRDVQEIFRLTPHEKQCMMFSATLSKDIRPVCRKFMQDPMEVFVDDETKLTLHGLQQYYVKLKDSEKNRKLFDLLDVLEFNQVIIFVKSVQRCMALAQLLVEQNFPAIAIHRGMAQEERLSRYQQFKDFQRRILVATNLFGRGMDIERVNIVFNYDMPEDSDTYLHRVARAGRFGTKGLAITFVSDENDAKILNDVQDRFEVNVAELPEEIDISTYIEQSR
UniProt P15682: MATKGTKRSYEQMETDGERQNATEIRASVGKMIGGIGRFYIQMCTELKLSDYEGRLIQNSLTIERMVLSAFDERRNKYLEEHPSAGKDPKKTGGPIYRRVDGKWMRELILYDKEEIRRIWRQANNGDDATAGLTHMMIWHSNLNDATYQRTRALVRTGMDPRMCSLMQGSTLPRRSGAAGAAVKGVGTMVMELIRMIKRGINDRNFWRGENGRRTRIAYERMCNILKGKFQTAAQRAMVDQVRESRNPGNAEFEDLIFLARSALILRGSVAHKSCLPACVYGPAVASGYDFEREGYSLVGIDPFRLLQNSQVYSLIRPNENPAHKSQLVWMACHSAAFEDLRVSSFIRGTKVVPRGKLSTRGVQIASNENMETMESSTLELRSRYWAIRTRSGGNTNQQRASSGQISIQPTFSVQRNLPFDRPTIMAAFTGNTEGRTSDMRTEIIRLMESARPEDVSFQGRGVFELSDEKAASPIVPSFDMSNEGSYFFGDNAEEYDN
UniProt P05777: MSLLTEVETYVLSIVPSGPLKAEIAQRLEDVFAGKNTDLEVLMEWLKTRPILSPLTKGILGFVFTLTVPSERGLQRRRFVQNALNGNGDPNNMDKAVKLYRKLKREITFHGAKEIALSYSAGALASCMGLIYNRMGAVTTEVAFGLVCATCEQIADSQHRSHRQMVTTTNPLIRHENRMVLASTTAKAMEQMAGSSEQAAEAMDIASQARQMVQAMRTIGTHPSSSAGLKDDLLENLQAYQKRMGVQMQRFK

Columns and labels:
Assay in all cases: co-IP
HA-DDX39B-ck (chicken) = HA-DDX39B-ck (chicken) (UniProt Q5ZHZ0)
HA-DDX39B (human) = HA-DDX39B (human) (UniProt Q13838)
HA-DDX39A (human) = HA-DDX39A (human) (UniProt O00148)
FLAG-DDX39B (human) = FLAG-DDX39B (human) (UniProt Q13838)
FLAG-DDX39A (human) = FLAG-DDX39A (human) (UniProt O00148)
[1] = molecular target: FLAG-DDX39B (95A) (human) (UniProt Q13838)

| Molecule | binding (FLAG-DDX39B (human)) | binding (FLAG-DDX39A (human)) | further results |
| --- | --- | --- | --- |
| FLAG-NP of influenza virus A/WSN/1933 (H1N1) (from UniProt P15682 1-498) |  |  | binding (HA-DDX39B-ck (chicken)): binds |
| FLAG-M1 of influenza virus A/WSN/1933 (H1N1) (from UniProt P05777 1-252) |  |  | binding (HA-DDX39B (human)): no binding; binding (HA-DDX39A (human)): no binding |
| MYC-CIP29 (protein, UniProt P82979 1-210) MATETVELHKLKLAELKQECLARGLETKGIKQDLIHRLQAYLEEHAEEEANEEDVLGDETEEEETKPIELPVKEEEPPEKTVDVAAEKKVVKITSEIPQTERMQKRAERFNVPVSLESKKAARAARFGISSVPTKGLSSDNKPMVNLDKLKERAQRFGLNVSSISRKSEDDEKLKKRKERFGIVTSSAGTGTTEDTEAKKRKRAERFGIA | binds | binds |  |
| MYC-THOC1 (protein, UniProt Q96FV9 1-657) MSPTPPLFSLPEARTRFTKSTREALNNKNIKPLLSTFSQVPGSENEKKCTLDQAFRGILEEEIINHSSCENVLAIISLAIGGVTEGICTASTPFVLLGDVLDCLPLDQCDTIFTFVEKNVATWKSNTFYSAGKNYLLRMCNDLLRRLSKSQNTVFCGRIQLFLARLFPLSEKSGLNLQSQFNLENVTVFNTNEQESTLGQKHTEDREEGMDVEEGEMGDEEAPTTCSIPIDYNLYRKFWSLQDYFRNPVQCYEKISWKTFLKYSEEVLAVFKSYKLDDTQASRKKMEELKTGGEHVYFAKFLTSEKLMDLQLSDSNFRRHILLQYLILFQYLKGQVKFKSSNYVLTDEQSLWIEDTTKSVYQLLSENPPDGERFSKMVEHILNTEENWNSWKNEGCPSFVKERTSDTKPTRIIRKRTAPEDFLGKGPTKKILMGNEELTRLWNLCPDNMEACKSETREHMPTLEEFFEEAIEQADPENMVENEYKAVNNSNYGWRALRLLARRSPHFFQPTNQQFKSLPEYLENMVIKLAKELPPPSEEIKTGEDEDEEDNDALLKENESPDVRRDKPVTGEQIEVFANKLGEQWKILAPYLEMKDSEIRQIECDSEDMKMRAKQLLVAWQDQEGVHATPENLINALNKSGLSDLAESLTNDNETNS |  | binds |  |
| CIP29 (in infected HEK293T cells, Fig 6L) (protein, UniProt P82979 1-210) MATETVELHKLKLAELKQECLARGLETKGIKQDLIHRLQAYLEEHAEEEANEEDVLGDETEEEETKPIELPVKEEEPPEKTVDVAAEKKVVKITSEIPQTERMQKRAERFNVPVSLESKKAARAARFGISSVPTKGLSSDNKPMVNLDKLKERAQRFGLNVSSISRKSEDDEKLKKRKERFGIVTSSAGTGTTEDTEAKKRKRAERFGIA | binds |  | binding [1]: no binding |
| HA-SRSF7 (protein, UniProt Q16629 1-238) MSRYGRYGGETKVYVGNLGTGAGKGELERAFSYYGPLRTVWIARNPPGFAFVEFEDPRDAEDAVRGLDGKVICGSRVRVELSTGMPRRSRFDRPPARRPFDPNDRCYECGEKGHYAYDCHRYSRRRRSRSRSRSHSRSRGRRYSRSRSRSRGRRSRSASPRRSRSISLRRSRSASLRRSRSGSIKGSRYFQSPSRSRSRSRSISRPRSSRSKSRSPSPKRSRSPSGSPRRSASPERMD | no binding |  |  |
